{"sequences": {"note": "By UniProt entry, the sequences of proteins in these tests, tags left out.", "UniProt Q8WQC9": "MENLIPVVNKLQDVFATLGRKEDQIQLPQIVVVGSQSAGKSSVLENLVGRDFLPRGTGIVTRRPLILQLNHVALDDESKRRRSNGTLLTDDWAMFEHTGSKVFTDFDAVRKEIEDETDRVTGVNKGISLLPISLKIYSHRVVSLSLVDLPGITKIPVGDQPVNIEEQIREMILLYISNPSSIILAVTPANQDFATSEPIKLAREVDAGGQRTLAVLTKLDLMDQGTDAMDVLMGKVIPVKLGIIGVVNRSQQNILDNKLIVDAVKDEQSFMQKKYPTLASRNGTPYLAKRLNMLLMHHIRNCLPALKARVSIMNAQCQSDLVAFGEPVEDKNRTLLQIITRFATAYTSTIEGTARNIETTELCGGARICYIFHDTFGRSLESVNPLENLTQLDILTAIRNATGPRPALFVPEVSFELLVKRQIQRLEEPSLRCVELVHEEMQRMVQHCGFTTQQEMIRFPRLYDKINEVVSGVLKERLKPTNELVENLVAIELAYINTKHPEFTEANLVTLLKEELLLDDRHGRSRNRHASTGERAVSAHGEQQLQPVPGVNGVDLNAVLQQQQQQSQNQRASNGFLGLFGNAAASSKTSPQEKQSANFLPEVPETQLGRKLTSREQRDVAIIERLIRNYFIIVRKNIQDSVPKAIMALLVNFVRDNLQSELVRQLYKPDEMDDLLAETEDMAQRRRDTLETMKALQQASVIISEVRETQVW"}, "source": "paper PMC7782850", "key": {"FLAG-MTX-2 (C. elegans)": {"target": "T1, FLAG-MTX-2 (C. elegans) (UniProt P34599)", "T1 sequence": "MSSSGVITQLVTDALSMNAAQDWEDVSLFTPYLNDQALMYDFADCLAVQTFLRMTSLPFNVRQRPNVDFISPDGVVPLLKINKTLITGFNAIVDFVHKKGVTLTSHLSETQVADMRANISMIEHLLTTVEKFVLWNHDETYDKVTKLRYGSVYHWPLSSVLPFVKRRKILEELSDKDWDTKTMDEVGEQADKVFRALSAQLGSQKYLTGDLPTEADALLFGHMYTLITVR", "experiment": "co-IP; Flag-tagged bait and HA-tagged prey cotransfected into HEK293T cells, harvested after 48 h; NP40 Cell Lysis Buffer; ANTI-FLAG M2 Affinity Gel, 4 h at 4 °C; Western blotting"}, "FLAG-DRP-1 (C. elegans)": {"target": "FLAG-DRP-1 (C. elegans) (UniProt Q8WQC9)", "experiment": "co-IP; Flag-tagged bait and HA-tagged prey cotransfected into HEK293T cells, harvested after 48 h; NP40 Cell Lysis Buffer; ANTI-FLAG M2 Affinity Gel, 4 h at 4 °C; Western blotting"}, "GST-MIRO-1 (C. elegans) [1]": {"target": "T2, GST-MIRO-1 (C. elegans) (UniProt Q94263)", "T2 sequence": "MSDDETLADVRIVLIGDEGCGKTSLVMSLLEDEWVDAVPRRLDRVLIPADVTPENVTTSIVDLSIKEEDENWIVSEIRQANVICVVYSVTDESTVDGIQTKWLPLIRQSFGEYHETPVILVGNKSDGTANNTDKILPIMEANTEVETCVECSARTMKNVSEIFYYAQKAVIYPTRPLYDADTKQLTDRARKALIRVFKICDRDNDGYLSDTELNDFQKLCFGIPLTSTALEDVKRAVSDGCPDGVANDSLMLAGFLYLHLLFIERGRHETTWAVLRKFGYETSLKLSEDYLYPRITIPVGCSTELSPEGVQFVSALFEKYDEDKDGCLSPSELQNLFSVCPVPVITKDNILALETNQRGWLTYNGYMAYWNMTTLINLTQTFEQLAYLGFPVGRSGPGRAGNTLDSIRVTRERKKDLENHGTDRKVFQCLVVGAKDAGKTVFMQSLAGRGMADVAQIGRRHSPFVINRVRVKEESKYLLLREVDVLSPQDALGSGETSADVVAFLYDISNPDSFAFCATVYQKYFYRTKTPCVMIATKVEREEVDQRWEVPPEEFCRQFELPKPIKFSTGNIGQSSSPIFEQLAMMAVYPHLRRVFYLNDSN", "experiment": "pull-down; E. coli cell lysates with the GST-tagged bait (or GST) mixed with cell lysates with His- or Trx-tagged proteins; Glutathione Sepharose 4 Fast Flow, PBS, 4 °C overnight; eluted with 20 mM glutathione; SDS-PAGE with Coomassie-blue staining"}, "GST-MIRO-1 (C. elegans) [2]": {"target": "T2, GST-MIRO-1 (C. elegans)", "experiment": "pull-down; four proteins: E. coli lysate with GST-MIRO-1 mixed with lysates with co-expressed Trx-MTX-1/Trx-MTX-2 and His-KLC-1-TPR; Glutathione Sepharose, PBS, 4 °C overnight; SDS-PAGE with Coomassie-blue staining"}, "FLAG-MIRO-1 (C. elegans)": {"target": "T3, FLAG-MIRO-1 (C. elegans) (UniProt Q94263)", "T3 sequence": "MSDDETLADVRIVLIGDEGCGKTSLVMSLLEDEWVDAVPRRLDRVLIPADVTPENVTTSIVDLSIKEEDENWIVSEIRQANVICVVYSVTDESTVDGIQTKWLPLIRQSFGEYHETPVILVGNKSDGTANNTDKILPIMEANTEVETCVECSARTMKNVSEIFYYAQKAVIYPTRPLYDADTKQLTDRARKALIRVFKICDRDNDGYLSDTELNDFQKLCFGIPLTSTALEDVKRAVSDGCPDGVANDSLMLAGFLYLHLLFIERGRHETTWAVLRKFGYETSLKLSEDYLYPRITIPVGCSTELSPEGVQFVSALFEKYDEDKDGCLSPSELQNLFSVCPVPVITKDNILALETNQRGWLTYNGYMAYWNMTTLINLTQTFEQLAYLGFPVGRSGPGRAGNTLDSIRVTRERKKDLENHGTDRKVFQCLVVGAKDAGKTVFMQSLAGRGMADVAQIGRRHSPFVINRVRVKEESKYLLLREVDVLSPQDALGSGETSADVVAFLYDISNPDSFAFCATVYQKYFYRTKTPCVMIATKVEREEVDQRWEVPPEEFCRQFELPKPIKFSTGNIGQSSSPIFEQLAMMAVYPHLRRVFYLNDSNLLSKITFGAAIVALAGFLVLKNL", "experiment": "co-IP; Flag-tagged bait and HA-tagged prey cotransfected into HEK293T cells, harvested after 48 h; NP40 Cell Lysis Buffer; ANTI-FLAG M2 Affinity Gel, 4 h at 4 °C; Western blotting"}, "FLAG-MTX-1 (C. elegans)": {"target": "T4, FLAG-MTX-1 (C. elegans) (UniProt O45503)", "T4 sequence": "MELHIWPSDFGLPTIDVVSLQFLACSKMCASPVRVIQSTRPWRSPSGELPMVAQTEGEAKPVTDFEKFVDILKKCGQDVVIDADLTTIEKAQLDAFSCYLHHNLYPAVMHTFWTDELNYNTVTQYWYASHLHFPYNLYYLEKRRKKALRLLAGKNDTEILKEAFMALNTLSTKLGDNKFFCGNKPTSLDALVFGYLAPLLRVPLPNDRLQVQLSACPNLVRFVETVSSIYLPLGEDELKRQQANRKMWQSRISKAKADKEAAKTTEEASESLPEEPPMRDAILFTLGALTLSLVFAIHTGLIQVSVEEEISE", "experiment": "co-IP; Flag-tagged bait and HA-tagged prey cotransfected into HEK293T cells, harvested after 48 h; NP40 Cell Lysis Buffer; ANTI-FLAG M2 Affinity Gel, 4 h at 4 °C; Western blotting"}, "[3]": {"target": "Miro1 (human (endogenous in HEK293T)), Q8IXI2", "experiment": "co-IP; lysate of mitochondria isolated from HEK293T cells, endogenous proteins; mouse anti-Miro1 antibody at 4 °C overnight, Protein A/G magnetic beads; Western blot; cytosol fraction as control", "settings": "remark: other sources report otherwise"}}, "note": "These are yes or no findings as the source states them, for the method shown. Binding seen in cells or lysates may run through a third protein. Some results given as binding are weak or reduced against the parent protein; the word gives no strength. For some of these results: Where a sequence is shown, tags or fusion partners need not be part of it."}
{"binder": "HA-MIRO-1 (protein, UniProt Q94263 1-625) MSDDETLADVRIVLIGDEGCGKTSLVMSLLEDEWVDAVPRRLDRVLIPADVTPENVTTSIVDLSIKEEDENWIVSEIRQANVICVVYSVTDESTVDGIQTKWLPLIRQSFGEYHETPVILVGNKSDGTANNTDKILPIMEANTEVETCVECSARTMKNVSEIFYYAQKAVIYPTRPLYDADTKQLTDRARKALIRVFKICDRDNDGYLSDTELNDFQKLCFGIPLTSTALEDVKRAVSDGCPDGVANDSLMLAGFLYLHLLFIERGRHETTWAVLRKFGYETSLKLSEDYLYPRITIPVGCSTELSPEGVQFVSALFEKYDEDKDGCLSPSELQNLFSVCPVPVITKDNILALETNQRGWLTYNGYMAYWNMTTLINLTQTFEQLAYLGFPVGRSGPGRAGNTLDSIRVTRERKKDLENHGTDRKVFQCLVVGAKDAGKTVFMQSLAGRGMADVAQIGRRHSPFVINRVRVKEESKYLLLREVDVLSPQDALGSGETSADVVAFLYDISNPDSFAFCATVYQKYFYRTKTPCVMIATKVEREEVDQRWEVPPEEFCRQFELPKPIKFSTGNIGQSSSPIFEQLAMMAVYPHLRRVFYLNDSNLLSKITFGAAIVALAGFLVLKNL", "values": [{"measurement": "binding", "setting": "FLAG-MTX-2 (C. elegans)", "value": "binds"}, {"measurement": "binding", "setting": "FLAG-DRP-1 (C. elegans)", "value": "no binding"}]}
{"binder": "MTX-1/2 complex (formed by co-expression of Trx-MTX-1 and Trx-MTX-2) (complex, UniProt O45503 1-281; P34599 1-230) chain 1: MELHIWPSDFGLPTIDVVSLQFLACSKMCASPVRVIQSTRPWRSPSGELPMVAQTEGEAKPVTDFEKFVDILKKCGQDVVIDADLTTIEKAQLDAFSCYLHHNLYPAVMHTFWTDELNYNTVTQYWYASHLHFPYNLYYLEKRRKKALRLLAGKNDTEILKEAFMALNTLSTKLGDNKFFCGNKPTSLDALVFGYLAPLLRVPLPNDRLQVQLSACPNLVRFVETVSSIYLPLGEDELKRQQANRKMWQSRISKAKADKEAAKTTEEASESLPEEPPMRDA chain 2: MSSSGVITQLVTDALSMNAAQDWEDVSLFTPYLNDQALMYDFADCLAVQTFLRMTSLPFNVRQRPNVDFISPDGVVPLLKINKTLITGFNAIVDFVHKKGVTLTSHLSETQVADMRANISMIEHLLTTVEKFVLWNHDETYDKVTKLRYGSVYHWPLSSVLPFVKRRKILEELSDKDWDTKTMDEVGEQADKVFRALSAQLGSQKYLTGDLPTEADALLFGHMYTLITVR", "values": [{"measurement": "binding", "setting": "GST-MIRO-1 (C. elegans) [1]", "value": "binds"}, {"measurement": "binding", "setting": "GST-MIRO-1 (C. elegans) [2]", "value": "binds"}]}
{"binder": "HA-MTX-2 (protein, UniProt P34599 1-230) MSSSGVITQLVTDALSMNAAQDWEDVSLFTPYLNDQALMYDFADCLAVQTFLRMTSLPFNVRQRPNVDFISPDGVVPLLKINKTLITGFNAIVDFVHKKGVTLTSHLSETQVADMRANISMIEHLLTTVEKFVLWNHDETYDKVTKLRYGSVYHWPLSSVLPFVKRRKILEELSDKDWDTKTMDEVGEQADKVFRALSAQLGSQKYLTGDLPTEADALLFGHMYTLITVR", "values": [{"measurement": "binding", "setting": "FLAG-DRP-1 (C. elegans)", "value": "no binding"}, {"measurement": "binding", "setting": "FLAG-MIRO-1 (C. elegans)", "value": "binds"}, {"measurement": "binding", "setting": "FLAG-MTX-1 (C. elegans)", "value": "binds"}]}
{"binder": "Trx-MTX-2 (protein, UniProt P34599 1-230) MSSSGVITQLVTDALSMNAAQDWEDVSLFTPYLNDQALMYDFADCLAVQTFLRMTSLPFNVRQRPNVDFISPDGVVPLLKINKTLITGFNAIVDFVHKKGVTLTSHLSETQVADMRANISMIEHLLTTVEKFVLWNHDETYDKVTKLRYGSVYHWPLSSVLPFVKRRKILEELSDKDWDTKTMDEVGEQADKVFRALSAQLGSQKYLTGDLPTEADALLFGHMYTLITVR", "values": [{"measurement": "binding", "setting": "GST-MIRO-1 (C. elegans) [1]", "value": "binds"}]}
{"binder": "HA-MTX-1 (protein, UniProt O45503 1-312) MELHIWPSDFGLPTIDVVSLQFLACSKMCASPVRVIQSTRPWRSPSGELPMVAQTEGEAKPVTDFEKFVDILKKCGQDVVIDADLTTIEKAQLDAFSCYLHHNLYPAVMHTFWTDELNYNTVTQYWYASHLHFPYNLYYLEKRRKKALRLLAGKNDTEILKEAFMALNTLSTKLGDNKFFCGNKPTSLDALVFGYLAPLLRVPLPNDRLQVQLSACPNLVRFVETVSSIYLPLGEDELKRQQANRKMWQSRISKAKADKEAAKTTEEASESLPEEPPMRDAILFTLGALTLSLVFAIHTGLIQVSVEEEISE", "values": [{"measurement": "binding", "setting": "FLAG-MTX-2 (C. elegans)", "value": "binds"}]}
{"binder": "Mtx1, Q13505 1-466 (protein) MLLGGPPRSPRSGTSPKGPWSSTGHVQFGKSPQTWPRRTRPRSPEPAAPSGVRGSTWTRRRDSPRRAGPTALSRYVGHLWMGRRPPSPEARGPVPRSSAASRARRSLASPGISPGPLTATIGGAVAGGGPRQGRAEAHKEVFPGQRVGKMAAPMELFCWSGGWGLPSVDLDSLAVLTYARFTGAPLKVHKISNPWQSPSGTLPALRTSHGEVISVPHKIITHLRKEKYNADYDLSARQGADTLAFMSLLEEKLLPVLVHTFWIDTKNYVEVTRKWYAEAMPFPLNFFLPGRMQRQYMERLQLLTGEHRPEDEEELEKELYREARECLTLLSQRLGSQKFFFGDAPASLDAFVFSYLALLLQAKLPSGKLQVHLRGLHNLCAYCTHILSLYFPWDGAEVPPQRQTPAGPETEEEPYRRRNQILSVLAGLAAMVGYALLSGIVSIQRATPARAPGTRTLGMAEEDEEE", "values": [{"measurement": "binding", "setting": "[3]", "value": "binds"}]}
